Assay results from PubChem BioAssay AID493208 (National Center for Advancing Translational Sciences (NCATS), 2011).
The whole screen tested about 44,000 compounds, of which about 340 (0.77%) were called active. Not shown: some 5% with an inconclusive outcome. Calls come from the whole dose curve; as a rule, active = well fitted inhibition curve with a large enough effect; inconclusive = small, poorly fitted or top-dose-only effect; inactive = flat fitted curve, though single readings scatter. Some of the results follow.

test: Acumen qHTS Assay for Inhibitors of the mTORC1 Signaling Pathway in MEF (Tsc2-/-, p53-/-) Cells: Sytravon; conditions: phospho-rpS6 immunofluorescence/PI, 24 h; series mostly up to 38.3 µM; activity change, negative = inhibition: at the top concentration;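 note: plate controls were DMSO for no effect and rapamycin for full effect; nearly all actives have a fitted effect of over 50% in size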
Outline: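 Cell-based qHTS: Tsc2-/- p53-/- MEF, 24 h cpd, 37 °C; fix/perm, anti-phospho-S6 Alexa-488 + PI; Acumen 488 nm scan; pS6/PI ratio, % positive cells; rapamycin 7.5 nM = inhibition ref; PI count = viability.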

Activity change, negative = inhibition, inactive:
CCOc1ccccc1NC(=O)CN1C(=O)CC(c2ccc(OC)c(OC)c2)Sc2ccccc21 (stereo unspecified) 0.123%
Cc1ccc(-c2nnc(C3CCN(S(=O)(=O)c4ccc(C)c(C)c4)CC3)o2)cc1 -21.1%
Cn1c(-n2cccc2)c(-c2c(-c3ccccc3)[nH]c3c2c(=O)n(C)c(=O)n3C)c(=O)n(C)c1=O -0.701%
CCCCOC(=O)c1ccc(NC(=O)CSc2nc3c(c(=O)[nH]2)CCCC3)cc1 4.1%
Cc1ccccc1CN1C(=O)c2ccccc2Sc2ccc(C(=O)NC(C)c3ccccc3)cc21 (stereo unspecified) -6.49%
COc1ccc(NC(=O)CC2C(=O)N(c3ccc(F)cc3)C(=O)N2Cc2ccco2)cc1 (stereo unspecified) -6.84%
Cc1ccc(N2C(=O)CCSC23C(=O)N(Cc2ccccc2)c2ccccc23)cc1F (stereo unspecified) -14.4%
Cc1cc(C)cc(NS(=O)(=O)c2ccc3[nH]cc(C(=O)N(C)Cc4ccccc4)c(=O)c3c2)c1 -7.19%
O=C(NCc1ccc(F)cc1)c1cc2c(=O)n3ccccc3nc2s1 3.08%
O=C(NCc1ccccc1)c1nn(-c2ccccc2)nc1CO -1.1%
COc1ccc(OC)c(/C=C(/C#N)c2nc(-c3ccc(-c4ccccc4)cc3)cs2)c1 -6.41%
Cc1ccc(CNC(=O)Cn2c(=O)n(-c3ccc(Cl)cc3)c(=O)c3c(C)c(C)sc32)cc1 -19.1%
CCCCNc1nc2c(S(=O)(=O)c3ccc(C)c(C)c3)nnn2c2ccsc12 -13.2%
Cc1ccc(CSc2nc3c([nH]c4ccccc43)c(=O)n2C)cc1 2.14%
Cc1c(-c2nc(-c3ccccc3)no2)nnn1-c1cccc(C(F)(F)F)c1 10.6%
COc1cc(Nc2ncc3c(n2)CCN(Cc2cc(Br)cs2)C3)cc(OC)c1 5.55%
COC(=O)c1ccccc1NC(=O)c1ccc2c(c1)CCN2S(C)(=O)=O 2.17%
Cc1cc(Nc2ccc(F)cc2)n2c(nc3ccccc32)c1C#N -12.4%
COc1ccccc1CNC(=O)c1ccc2c(c1)nc(C)n2-c1ccccc1OC -0.881%
Cc1nn2c(-c3ccco3)ccnc2c1-c1ccc(F)cc1 -3.35%
COc1ccccc1NC(=O)CN1CCCN(S(=O)(=O)c2ccc(Br)cc2)CC1 -0.249%
Cc1nc2ccccn2c(=O)c1NC(=O)c1ccc(C(F)(F)F)cc1 -15.2%
COc1ccc(NC(=O)c2cccn2-c2nnc(N3CCCCC3)s2)cc1Cl -13.4%
CCOc1ccc(NC(=O)Cn2c(C)cc3ccccc3c2=O)cc1 -12.2%
Cc1ccc(NC(=O)Cn2c(=O)n(CCCCC(=O)NCc3ccccc3Cl)c(=O)c3ccccc32)cc1C -8.71%
O=C(O)c1ccc(-n2c(/C=C\c3ccc(O)cc3)nc3ccccc3c2=O)cc1 6.37%
COc1ccc(/C=C(\C#N)c2nc(-c3cc4c(ccc5ccccc54)oc3=O)cs2)cc1O 3.53%
Cc1ccc(C2=Nc3ccccc3N(CC(=O)NCc3ccc(F)cc3)C(=O)C2)cc1C -2.23%
CCOC(=O)c1ccccc1NC(=O)c1sc2ncn(Cc3cccc(F)c3)c(=O)c2c1C 2.43%
Cc1ccc(C)c(NC(=O)CSc2c3c(nc4ccc(Cl)cc24)CCCC3)c1 2.14%
COc1cn(CC(=O)Nc2cccc(C)c2C)c(CN2CCCCC2)cc1=O -0.51%
CC1=C(C(=O)Nc2cccnc2)C(c2ccc(Cl)cc2)n2nc(-c3ccccc3)nc2N1 (stereo unspecified) 0.436%
COc1ccc(OC)c(S(=O)(=O)NCc2cccn2Cc2cccc(C)c2)c1 4.44%
COc1ccc(C(=O)Nc2cccc(OCc3cc(=O)n4c5c(sc4n3)CCCC5)c2)cc1 -8.97%
Cn1c(=O)c2c(nc3n(-c4ccc(O)cc4)c(-c4ccc(Br)cc4)cn23)n(C)c1=O 3.93%
COc1cccc(C(=O)c2cn(CC(=O)NCc3ccccc3)c3nc(C)ccc3c2=O)c1 2.58%
COC(=O)c1sc(NC(=O)/C=C/c2ccc(OC)c(OC)c2)c(C(=O)OC)c1C 2.79%
COc1ccc(CNC(=O)CSc2nc3ccccc3nc2Cc2ccccc2OC)cc1 0.478%
COC(=O)c1cc2c(cc1NC(=O)c1cnn(-c3ccc(C)cc3)c1-n1cccc1)OCO2 0%
CC(C)NC(=O)CCCN1C(=O)CCn2nc(-c3cccn3C)cc21 0%
CCN1CCN(c2cc3c(cc2F)c(=O)c(S(=O)(=O)c2ccccc2)cn3C)CC1 -1.41%
COc1ccccc1-c1cc(C(=O)Nc2ccccc2C(F)(F)F)no1 -18%
COc1ccccc1NC(=O)CSc1nc2ccccc2c2nc(-c3ccccc3)nn12 -17.6%
Cc1[nH]c2ccccc2c1C1N2CC3(C)CN1CC(C)(C2)C3=O (stereo unspecified) 7.48%
Cc1nn(C)c2c1c(C(F)(F)F)cc(=O)n2C(C)C(=O)NCc1ccc(Cl)cc1 (stereo unspecified) -14.2%
O=C(Nc1ccc(Br)cc1F)N1CCC(CN2CCCC2)CC1 -4.82%
CC1=C(C(=O)OCc2ccccc2)C(c2cccc(Cl)c2Cl)CC(=O)N1 (stereo unspecified) -11.8%
Cc1cccc(CNC(=O)CSCc2cnn(-c3ccccc3)c2-n2cccc2)c1 -10.3%
CCOC(=O)c1ccc(NS(=O)(=O)c2cc(-c3onc(C)c3C)ccc2C)cc1 4.32%
COc1cc(OC)c(C2Nc3c(C)cccc3-c3cc(C)nn32)cc1OC (stereo unspecified) 1.92%
CCN1C(=O)c2ccccc2S(=O)c2ccc(C(=O)N3CCN(c4cccc(C)c4)C(C)C3)cc21 (stereo unspecified) 1.85%
CC1=C(c2ccc(C)cc2)S(=O)(=O)NC1=NCc1cccc(F)c1 -0.182%
COC(=O)c1ccc(NC(=O)CC2C(=O)N(c3ccc(Cl)cc3)C(=O)N2Cc2ccco2)cc1 (stereo unspecified) 0.566%
COc1ccc(NC(=O)CN2CCCN(Cc3ccc(Cl)cc3)S2(=O)=O)cc1Cl 6.23%
CCN1c2ccccc2-c2nc(SCC(=O)NCc3ccc(C)cc3)ncc2S1(=O)=O 6.4%
COc1ccc(CNC(=O)c2cnc3sc(N4CCCCCC4)nn3c2=O)cc1 -9.52%
CCOC(=O)c1cnc2ccccc2c1NCCc1ccc(OC)c(OC)c1 -27%
Cc1sc2ncn(CC(=O)N3CCN(c4ccc(F)cc4)CC3)c(=O)c2c1S(=O)(=O)N1CCC(C)CC1 -0.287%
COC(=O)C1=C(c2ccccc2)c2ccccc2S(=O)(=O)N1CC(=O)Nc1ccc(F)c(F)c1 -17.4%
Cc1ccc(CNC(=O)Cn2c(=O)cc(C(F)(F)F)c3c(C)nn(C)c32)cc1 -1.79%
CCOc1ccc(NC(=O)CN(c2ccc(CC)cc2)S(=O)(=O)c2c(C)noc2C)cc1 -0.469%
CCOc1ccc(-c2nc(Cn3c(=O)cc(-c4ccccc4)c4c(C)nn(C)c43)c(C)o2)cc1 2.51%
Cc1ccc(CNC(=O)C2CCN(S(=O)(=O)c3c(C)noc3/C=C/c3cccs3)CC2)cc1 -15.4%
O=C(CCS(=O)(=O)c1cc2c(cc1Cl)NC(=O)CO2)NCc1ccccc1Cl 4.02%
Oc1c(C(c2ccc(Cl)cc2Cl)N2CCN(c3ccccc3)CC2)sc2nc(-c3ccco3)nn12 (stereo unspecified) 2.96%
O=C(NCc1cccc(Cl)c1)c1ccc(NC(=O)N2CC3CCCN3c3ccccc32)cc1 (stereo unspecified) 8.43%
CC(C)Oc1ccc(CNC(=O)c2ccc(CN3CC(=O)N4CCCCC4C3=O)cc2)cc1 (stereo unspecified) 0.752%
CSc1ncc(C(=O)NCc2cccc(F)c2)c(-c2ccccc2)n1 -0.207%
CCCc1nc(SC)ncc1C(=O)N1CCN(c2ccc(Cl)cc2)CC1 -0.0457%
O=c1c2oc3ccccc3c2n(Cc2ccccc2Cl)c(=O)n1Cc1ccco1 -1.66%
COc1ccc(CN(Cc2ccco2)c2cnc(S(C)(=O)=O)nc2C(=O)Nc2ccc(C)c(Cl)c2)cc1 -7.03%
CCCn1c(SCc2nc(-c3ccc(OC)c(OC)c3)no2)nnc1-c1ccccc1 7.72%
Cc1ccc(NC(=O)c2cnn3c(C(F)F)cc(-c4ccccc4)nc23)cc1F -0.14%
O=C(NCCc1ccccc1)C1CCC(CNS(=O)(=O)c2ccccc2)CC1 (stereo unspecified) -14.7%
CC(C)Oc1ccc(C(=O)N2CCN(CCc3ccccn3)CC2)cc1 -0.107%
COc1ccc(OC)c(CNC(=O)c2ccc(-c3nc(CSc4ccccc4)c(C)o3)cc2)c1 -6.09%
CC1CCc2nn(CC(=O)Nc3ccccc3Cl)cc2C1 (stereo unspecified) 1.26%
CCOc1ccc(NC(=O)NCCc2c(C)nn(C)c2C)cc1 0%
COc1ccc(NC(=O)C(=O)NCC(c2cccnc2)N2CCc3ccccc32)cc1OC (stereo unspecified) -0.946%
COc1cccc(S(=O)(=O)N2CCN(Cc3ccc4c(c3)OCO4)CC2)c1 -7.23%
CN(Cc1ccccc1)S(=O)(=O)c1ccc(-c2cnc(C3CC3)o2)cc1 7.47%
Cc1c(C2=CCN(S(=O)(=O)c3cccc(Cl)c3)CC2)c2ccccc2n1CC(=O)N1CCCC1 -0.0867%
Cc1ccc(NC(=O)C(C)Sc2nc(=O)cc(N)n2-c2cccc(C)c2)cc1 (stereo unspecified) -2.7%
Cc1cccc(N2CCN(C(=O)CN3CCSc4ccccc43)CC2C)c1 (stereo unspecified) 5.45%
Cc1ccc(C)c(NC(=O)CN2C(=O)COc3ccc(Cl)cc32)c1 -1.65%
Cn1c(=O)nc2n(-c3ccc(Cl)c(Cl)c3)c3cc(Cl)ccc3cc-2c1=O -4.67%
O=C(Nc1c(C(=O)Nc2ccc(F)cc2)oc2ccccc12)c1ccccc1F -20.2%
COc1ccccc1CNC(=O)C1CCCN(c2nnc(-n3c(C)ccc3C)s2)C1 (stereo unspecified) -1.17%
CC1=C(C(=O)OCC2CCCCC2)C(c2ccccc2F)CC(=O)N1 (stereo unspecified) -29.8%
COc1ccc(C(=O)N(Cc2ccc(C(C)C)cc2)C2CCS(=O)(=O)C2)cc1 (stereo unspecified) 3.17%
Cc1ccccc1CNS(=O)(=O)c1csc(C(N)=O)c1 4.55%
Cc1nc2nc(SCC(=O)NCCc3ccccc3)nn2c(C)c1Cc1c(F)cccc1Cl 10.5%
Cc1ccc(C(C)C)c(OCC(=O)N2CCC(c3nc4ccccc4o3)CC2)c1 -2.84%
CCn1c(SCCOc2ccccc2F)nc2ccccc21 -7.52%
CCOc1ccccc1C(=O)Nc1ccc2c(c1)N(C)C(=O)c1ccccc1S2 -14.1%
Cc1nn(-c2ccc(N3CCOCC3)nn2)c(C)c1CCC(=O)NCc1ccc(OC(C)C)cc1 -5.51%
